Experimental findings from article PMC6842947, “Enhanced Antiviral Activity of Human Surfactant Protein D by Site-Specific Engineering of the Carbohydrate Recognition Domain” (Frontiers in Immunology, 2019) are described below.

Holding throughout (assay): Saccharide competition of SP-D binding to BSA-mannan coated plates
What all share (conditions): averages of three experiments, SD in parentheses

One experiment addresses T1, pSP-D (Sus scrofa, UniProt Q9N1X4).
T1 sequence (Q9N1X4 21-378): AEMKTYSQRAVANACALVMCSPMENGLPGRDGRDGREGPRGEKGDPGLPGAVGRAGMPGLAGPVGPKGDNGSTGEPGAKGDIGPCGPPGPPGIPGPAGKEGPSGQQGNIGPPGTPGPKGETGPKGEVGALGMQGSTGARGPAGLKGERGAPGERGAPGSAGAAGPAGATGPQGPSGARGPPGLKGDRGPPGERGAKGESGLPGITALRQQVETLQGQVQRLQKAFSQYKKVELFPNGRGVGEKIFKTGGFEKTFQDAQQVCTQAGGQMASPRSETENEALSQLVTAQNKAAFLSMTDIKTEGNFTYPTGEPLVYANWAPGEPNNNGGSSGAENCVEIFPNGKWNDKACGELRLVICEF
Set-up: species or system porcine.

The target in the next experiment is T2, hSP-D (Homo sapiens, UniProt P35247).
T2 construct: The full-length recombinant collectins pSP-D and hSP-D were constructed as published; made in house; host or cells: HEK293 (HEK293E, transient transfection)
T2 sequence (P35247 21-375): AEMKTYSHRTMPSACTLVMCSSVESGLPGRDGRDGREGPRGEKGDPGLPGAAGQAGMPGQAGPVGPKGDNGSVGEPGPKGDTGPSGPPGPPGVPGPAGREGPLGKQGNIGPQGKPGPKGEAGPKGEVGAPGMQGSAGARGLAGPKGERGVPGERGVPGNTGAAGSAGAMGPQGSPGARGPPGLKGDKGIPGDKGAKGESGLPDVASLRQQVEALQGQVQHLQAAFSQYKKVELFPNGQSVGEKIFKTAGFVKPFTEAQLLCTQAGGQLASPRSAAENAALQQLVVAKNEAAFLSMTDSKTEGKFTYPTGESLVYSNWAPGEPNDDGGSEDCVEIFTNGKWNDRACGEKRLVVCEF

The target in the next experiment is T3, iSP-D (Homo sapiens, UniProt P35247, D344N/D350N/E309K/INS346GSS/K307Q/V271E).
T3 construct: Full-length recombinant iSP-D was generated based upon the full-length hSP-D cDNA clone; made in house; host or cells: HEK293 (HEK293E, transient transfection)
T3 sequence (P35247 with tags, fused parts or gaps V271E/K307Q/E309K/D344N/INS346GSS/D350N): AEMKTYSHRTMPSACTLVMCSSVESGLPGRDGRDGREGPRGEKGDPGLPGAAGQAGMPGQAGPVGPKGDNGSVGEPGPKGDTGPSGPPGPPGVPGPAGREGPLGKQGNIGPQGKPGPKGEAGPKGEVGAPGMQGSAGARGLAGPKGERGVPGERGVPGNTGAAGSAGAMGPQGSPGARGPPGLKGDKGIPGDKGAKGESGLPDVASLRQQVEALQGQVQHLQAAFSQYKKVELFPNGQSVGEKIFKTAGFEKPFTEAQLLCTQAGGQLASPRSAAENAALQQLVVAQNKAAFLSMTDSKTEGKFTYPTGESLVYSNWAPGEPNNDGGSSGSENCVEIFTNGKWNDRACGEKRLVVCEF

pIC50: −log10 of the molar value.

For `OC[C@H]1OC(O)[C@@H](O)[C@@H](O)[C@@H]1O` (stereo partly drawn) [D-Mannose, D-mannose], the pIC50 (commonly −log10 of the IC50, conventionally taken in molar units) is 2.34 at pSP-D, 2.44 on hSP-D and 2.28 at iSP-D.

`C[C@H](O)[C@@H](O)[C@@H](O)[C@H](O)C=O` [L-Fucose, L-fucose]: the pIC50 on pSP-D was 2.66; at hSP-D, 2.42; on iSP-D, 2.37.

For the molecule `OC[C@H]1O[C@H](O[C@H]2[C@H](O)[C@@H](O)C(O)O[C@@H]2CO)[C@H](O)[C@@H](O)[C@@H]1O` (mixture of isomers) [Maltose, maltose], the pIC50 at pSP-D is 2.70; on hSP-D, 2.48; at iSP-D it was 2.39.

Take `O[C@H]1[C@H](O)[C@@H](O)[C@H](O)[C@@H](O)[C@H]1O` [Myo-Inositol, myo-inositol]: the pIC50 was 3.05 at pSP-D, 2.25 on hSP-D and 1.76 at iSP-D.
